# Measured values as given in PubChem BioAssay AID1508642 (National Center for Advancing Translational Sciences (NCATS), 2021).
# Among all 43,000 compounds or so, about 200 (0.47%) were called active. Inconclusive results (about 12%) are left out. Calls come from the whole dose curve; as a rule, active = well fitted cell-killing curve with a large enough effect; inconclusive = small, poorly fitted or top-dose-only effect, or effect the other way; inactive = flat fitted curve, though single readings scatter. The list shows a part of the results.
# Experiment: Cell viability qHTS assay in S16 Pmp22-F2sN cells; note: nearly all actives have a fitted effect of over 65% in size
# Settings: S16 Pmp22-F2sN Schwann cells (luciferase reporters placed in the Pmp22 gene) viability, CellTiter-Glo, 24 h; series mostly up to 57.5 µM; activity change, negative = cytotoxicity: at the top concentration
# Summary of the method: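 Rat S16 Schwann reporter line, 24 h treatment with library compounds delivered at 23 nL per well. Cell viability by CellTiter-Glo luminescence.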
# % is set by controls: 0 for no effect and ±100 for the full control effect.
row,Compound,"activity change, negative = cytotoxicity"
1,O=C(NCCOCCn1c(=O)oc2ccccc21)Nc1ccc(Cl)cc1,inactive: -26.2%
2,CCOc1ccc(CNC(=O)c2ccc3c(c2)c(C)c(C)n3Cc2ccc(Cl)cc2)cc1,inactive: -10.4%
3,CN(C)S(=O)(=O)n1cc(/C=C(\NC(=O)c2ccccc2)C(=O)NCCCn2ccnc2)c2ccccc21,inactive: 5.48%
4,CCOC(=O)N1CCc2c(sc3c2c(=O)n(-c2ccc(CC)cc2)c(=O)n3CC(=O)Nc2ccc(C)cc2)C1,inactive: 1.73%
5,Cc1ccc2oc(=O)n(CCCOc3ccc(Cl)cc3)c2c1,inactive: -3.36%
6,COc1ccc(N2CC(NC(=O)CCc3ccccc3)CC2=O)cc1OC (centres undefined),inactive: 10.8%
7,Cc1cc(C)c(NC(=O)c2cc(S(=O)(=O)N3CCN(c4ccccc4F)CC3)ccc2F)c(C)c1,inactive: -22.4%
8,COc1ccc(C2c3c(n(C)c4ccccc34)C(=O)N2CC(=O)Nc2ccccc2F)cc1 (centres undefined),inactive: -9.79%
9,COc1ccc(Cl)cc1NC(=O)CN(c1cccc(C)c1C)S(=O)(=O)c1ccccc1,inactive: -4.38%
10,O=C(CC1N=C2c3ccccc3N=C(SCc3ccccc3F)N2C1=O)NCc1ccc2c(c1)OCO2 (centres undefined),inactive: -7.97%
11,O=C(NCc1ccc(Cl)cc1)c1cnc2sc(N3CCCC3)nn2c1=O,inactive: 6.94%
12,CCOc1ccc(C(c2c(O)cc(C)n(CCOC)c2=O)N2CCC(C)CC2)cc1 (centres undefined),inactive: -3.5%
13,COc1ccc(CCNC(=O)c2ccc3c(c2)N(Cc2cccc(Cl)c2)C(=O)CS3)cc1OC,inactive: -13.3%
14,COc1ccc2c(c1)sc1ncc(C(=O)NCc3cccc(Cl)c3)c(=O)n12,inactive: 3.47%
15,COc1cc(C)ccc1OCCn1c(-c2ccc(Cl)cc2)nc2ccccc2c1=O,inactive: 2.42%
16,COc1ccc(-n2c3c(cc(-c4nc(-c5ccc(Cl)cc5)cs4)c2=O)C(=O)CC(C)(C)C3)cc1,inactive: 24.6%
17,Cc1ccc2scc(N3CCN(c4ccc(F)cc4)CC3)c(=O)c2c1,inactive: 2.87%
18,COc1ccc(NC(=O)c2sc3nc4n(c(=O)c3c2C)CCC4)cc1Cl,inactive: 6.52%
19,CCc1ccc(CNC(=O)c2cc(-c3ccc(Cl)s3)nc3ccccc23)cc1,inactive: -3.45%
20,Cc1ccc(N(C)S(=O)(=O)c2nnc(NC(=O)C3CCCCC3)s2)cc1,inactive: -21.6%
21,Cc1ccc(CCNC(=O)c2ccc(CSCc3ccccc3Cl)o2)cc1,inactive: -10.4%
22,CCOc1ccc(NC(=O)Cn2c(=O)oc3cc(S(=O)(=O)N4CCCCCC4)ccc32)cc1,inactive: -19.8%
23,O=C(Cc1ccc(NC(=O)N2CCSc3ncccc32)cc1)NCCc1ccccc1,inactive: 5.86%
24,COC(=O)c1cc(-c2ccc(OC)c(OC)c2)c2c(=O)[nH]c(=O)n(C)c2n1,inactive: 11%

row,Compound,"activity change, negative = cytotoxicity"
1,CCC(=O)N1CCc2cc(S(=O)(=O)NC(CC(C)C)C(=O)NCc3ccc(F)cc3)ccc21 (centres undefined),inactive: -13%
2,Cc1ccc(S(=O)(=O)c2nc(-c3ccco3)oc2SCC(=O)Nc2ccc(F)cc2)cc1,inactive: 3.38%
3,O=C(CCn1c(=O)c2sccc2n(Cc2cccc(F)c2)c1=O)NCc1ccc2c(c1)OCO2,inactive: 8.16%
4,Cc1ccc(NC(=O)Cn2c(=O)n(Cc3nc(C)no3)c(=O)c3cc4c(cc32)OCO4)c(Cl)c1,inactive: 6.16%
5,Cc1cccc(C)c1NC(=O)Cn1c(=O)n(Cc2ccco2)c(=O)c2ccc(C(=O)NC3CCCC3)cc21,inactive: -25.2%
6,CCOc1ccc(CNC(=O)C2CCCN(S(=O)(=O)N(C)c3ccc(F)cc3)C2)cc1OC (centres undefined),inactive: 1.31%
7,COc1cccc(Cn2c(NCc3ccc(C)cc3)nc3c2c(=O)n(C)c(=O)n3C)c1,inactive: -5.96%
8,CC(=O)Nc1ccc(NS(=O)(=O)c2c(C)nc3sccn3c2=O)cc1,inactive: -1.25%
9,CCOC(=O)c1cnc2c(ccc3ccccc32)c1Nc1ccc(Cl)cc1,inactive: -4%
10,CC(=O)c1ccc(NC(=O)c2ccc(-c3nc(COc4ccc(C)cc4)c(C)o3)cc2)cc1,inactive: -17.7%
11,Cc1nn(-c2ccc3nnc(C)n3n2)c(C)c1CCC(=O)Nc1ccc(OC(F)(F)F)cc1,inactive: 6.35%
12,NC(=O)Cn1c(=O)n(CCCCCC(=O)NCc2ccccc2)c(=O)c2sccc21,inactive: 2.41%
13,COc1ccc(-n2c(=O)c3ccccc3n(Cc3ccccc3C)c2=O)c(OC)c1,inactive: 2.19%
14,Cc1ccc(-n2nc(CO)c(C(=O)NCCCc3ccccc3)n2)cc1,inactive: -2.79%
15,CCOc1ccc(C(=O)c2cnc3ccc(Cl)cc3c2S(=O)(=O)c2ccc(C)cc2)cc1,inactive: -22.7%
16,CCc1ccccc1Nc1nc2cc(Cl)c(Cl)cc2nc1-n1nc(C)cc1C,inactive: 2.67%
17,CSc1ccc(CNC(=O)CCn2c(=O)c3cccn3c3ccc(F)cc32)cc1,inactive: 3.8%
18,O=C(CSc1nnc2ccc3ccccc3n12)c1ccc(F)cc1,inactive: -2.49%
19,O=c1c2ccccc2n(Cc2ccccc2F)c(=O)n1-c1cccc(F)c1,inactive: 12.9%
20,Cc1cccc(NC(=O)c2ccc(-c3nc(CSc4ccccc4)c(C)o3)cc2)c1C,inactive: -4.07%
21,COc1ccc(C(=O)Nc2ccc(-c3nc4ccccc4s3)cc2C)cc1Cl,inactive: -27.7%
22,COc1ccc(C(=O)N2CCC(c3nc(-c4ccc(S(=O)(=O)N5CCCC5)cc4)no3)CC2)cc1,inactive: -12.7%
23,COC(=O)c1cc2occc2n1Cc1cccc(C)c1,inactive: 0.516%
24,Cc1ccc(C)c(CN2C(=O)c3ccccc3S(=O)(=O)c3ccc(C(=O)N4CCN(c5ccccc5F)CC4)cc32)c1,inactive: 1.81%

row,Compound,"activity change, negative = cytotoxicity"
1,COc1ccc(CNC(=O)CCc2nnc3n(CC(C)C)c(=O)c4ccccc4n23)cc1,inactive: 11.3%
2,CCS(=O)(=O)N1CCc2cc(C(=O)Nc3cc(C(F)(F)F)ccc3Cl)ccc21,inactive: -7.78%
3,COc1cccc(NC(=O)Cn2c(=O)n(CCCCC(=O)NCCc3ccccc3)c(=O)c3ccccc32)c1,inactive: 1.25%
4,COc1ccc(C)cc1NS(=O)(=O)c1ccc2[nH]c(=O)c(=O)[nH]c2c1,inactive: 0.245%
5,CCn1ccc2cc(S(=O)(=O)N3CCCN(C(=O)NCCOC)CC3)ccc21,inactive: 13.3%
6,CCc1ccccc1Nc1nc2ccccc2n2cnnc12,inactive: -13%
7,COc1ccc(CCNC(=O)CCn2c(=O)c3cccn3c3cccnc32)cc1OC,inactive: 5.18%
8,CCOc1cc(C(=O)N2CCC(c3ccncc3)CC2)cc(OCC)c1OCC,inactive: 3.47%
9,COc1ccc(Cl)cc1NC(=O)CSc1nc(-c2ccco2)cc(C(F)(F)F)n1,inactive: -2.14%
10,NC(=O)C1CCN(C(=O)Cn2c(-c3cccs3)cc3ccccc32)CC1,inactive: -4.49%
11,CCOc1ccc(NC(=O)CN2CCN(CC(=O)Nc3ccccc3OCC)CC2)cc1,inactive: -15.4%
12,COc1ccc(-c2oc3ncn4nc(-c5ccccc5C)nc4c3c2-c2ccc(OC)cc2)cc1,inactive: -0.307%
13,Cc1cccc(C)c1OC(=O)CSc1nnc(-c2cccs2)o1,inactive: 1.71%
14,COc1ccccc1-n1nc(-c2ccccc2)c2cnc3cc(C(F)(F)F)ccc3c21,inactive: 27.4%
15,CCOC(=O)c1ccc(NC(=O)COC(=O)c2cn(CC)c3nc(C)ccc3c2=O)cc1,inactive: -4.7%
16,CC1CN(S(=O)(=O)c2ccc3c(c2)NC(=O)CC(=O)N3)c2ccccc2O1 (centres undefined),inactive: -11.1%
17,O=c1cc(-c2ccccc2)n2c(SCc3cccc([N+](=O)[O-])c3)nnc2[nH]1,inactive: -0.183%
18,CCOC(=O)CN1C(=O)c2cccnc2Oc2ccccc21,inactive: 11.1%
19,O=C(CCCn1c(=O)c2sccc2n(Cc2cccc(Cl)c2)c1=O)NCc1ccc2c(c1)OCO2,inactive: 12.1%
20,Cc1cc(C)cc(NC(=O)CSCc2cc(=O)c3ccc(C)c(C)c3[nH]2)c1,inactive: 5.69%
21,CNS(=O)(=O)c1cn(CC(=O)N2CCN(c3cc(C)ccc3C)CC2)cc1S(=O)(=O)NC,inactive: -7.99%
22,Cc1nn2c(C)c(C(=O)NCC(C)c3ccccc3)cnc2c1-c1ccccc1 (centres undefined),inactive: 1.42%
23,O=C(Nc1c2c(nn1-c1ccc(Cl)cc1)CS(=O)(=O)C2)c1ccccc1F,inactive: -1.93%
24,O=C(NCCc1nc2ccccc2n1CCCOc1ccc(Cl)cc1)C1CCCCC1,inactive: -29.7%

row,Compound,"activity change, negative = cytotoxicity"
1,COc1ccc(C2NC(=O)N(C)C3=C2C(=O)N(c2ccc(F)cc2)C3)cc1 (centres undefined),inactive: -10%
2,Fc1ccc(Cn2c(-c3cccc(Br)c3)nc3ccccc32)cc1,inactive: 2.37%
3,CCOc1ccc(CCNC(=O)Cn2nc(CC)n3c(cc4sccc43)c2=O)cc1,inactive: 5.61%
4,CCC(C(=O)NCc1ccccc1Cl)n1nc(C)c2sc3ccccc3c2c1=O (centres undefined),inactive: 0.824%
5,Cc1ccc(NC(=O)c2sc(-n3nc(C)c(Cc4ccc5c(c4)OCO5)c3C)nc2C)cc1C,inactive: 0.716%
6,CCOc1cc(C2c3c(-c4ccccc4O)n[nH]c3C(=O)N2Cc2cccnc2)ccc1O (centres undefined),inactive: -17.2%
7,Cc1cccc(NC(=O)CSc2nccn2-c2cccc(Cl)c2)c1C,inactive: 2.13%
8,CCn1nc(C)c2c(-c3ccccc3)cc(=O)n(C(C)C(=O)NCCc3ccccc3)c21 (centres undefined),inactive: 10.9%
9,CCc1nn2c(=O)cc(COC(=O)c3ccccc3NC(=O)c3cccs3)nc2s1,inactive: 11.9%
10,Cc1cc(=O)oc2c3c(ccc12)OCN(Cc1ccc(Cl)cc1)C3,inactive: -0.145%
11,CCC1CCCCN1C(=O)Cn1c(=O)n(CCCCCC(=O)NCc2ccccc2Cl)c(=O)c2sccc21 (centres undefined),inactive: 0.434%
12,Fc1ccccc1Nc1ncnc2c1nc1n2CCCCC1,inactive: 23.8%
13,O=C(NCCc1ccc(Cl)cc1)c1ccc2c(c1)N(Cc1cccc(Cl)c1)C(=O)c1ccccc1S2(=O)=O,inactive: -19.1%
14,Cc1cccc(CCNC(=O)c2c[nH]c3ccc(S(=O)(=O)Nc4ccccc4F)cc3c2=O)c1,inactive: -1.13%
15,CCC(=O)N1CCc2cc(Br)cc(S(=O)(=O)NCc3ccccc3)c21,inactive: 8.26%
16,O=C(CCCCCn1c(=O)[nH]c2ccccc2c1=O)NCc1ccc(Cl)cc1,inactive: -0.946%
17,COc1cc(NC(=O)CCNC(=O)Cn2cnc3ccccc3c2=O)cc(OC)c1OC,inactive: -2.26%
18,COc1ccc(CCn2c(=O)c3cccnc3n(CC(=O)Nc3c(C)cc(C)cc3C)c2=O)cc1OC,inactive: 4.72%
19,Cc1cc(C)c(NC(=O)Nc2csc3c2CCCC3)c(C)c1,inactive: 3.32%
20,CCN(CC)C(=O)COc1ccc(-c2nnc(Nc3ccc(OC)c(C(=O)NC)c3)c3ccccc23)cc1,inactive: -0.897%
21,Cc1sc2ncn(CC(=O)N(C)c3cccc(C(F)(F)F)c3)c(=O)c2c1S(=O)(=O)N1CCN(c2ncccn2)CC1,inactive: 5.98%
22,Fc1ccc(-n2ncc3c(N4CCN(c5ccccc5F)CC4)ncnc32)cc1,inactive: 0.888%
